Measured values taken from paper PMC9792594.
Results are given in words; binding and its absence hold for the method and conditions named. Binding seen in cells or lysates may run through a third protein. Some results given as binding are weak or reduced against the parent protein; the word gives no strength. Sequences can lack the tags named with a protein.

By UniProt entry, the sequences of proteins in these tests, tags left out. Where a name states a change or a piece, a line headed by the entry shows the natural chain unless it says otherwise. Chains listed by the source or under a name are the forms on record and can include a tag or linker. Residues count along the entry.
soluble form of FLAG-tagged FAM20C (wild type) (Q8IXL6, residues 43-584): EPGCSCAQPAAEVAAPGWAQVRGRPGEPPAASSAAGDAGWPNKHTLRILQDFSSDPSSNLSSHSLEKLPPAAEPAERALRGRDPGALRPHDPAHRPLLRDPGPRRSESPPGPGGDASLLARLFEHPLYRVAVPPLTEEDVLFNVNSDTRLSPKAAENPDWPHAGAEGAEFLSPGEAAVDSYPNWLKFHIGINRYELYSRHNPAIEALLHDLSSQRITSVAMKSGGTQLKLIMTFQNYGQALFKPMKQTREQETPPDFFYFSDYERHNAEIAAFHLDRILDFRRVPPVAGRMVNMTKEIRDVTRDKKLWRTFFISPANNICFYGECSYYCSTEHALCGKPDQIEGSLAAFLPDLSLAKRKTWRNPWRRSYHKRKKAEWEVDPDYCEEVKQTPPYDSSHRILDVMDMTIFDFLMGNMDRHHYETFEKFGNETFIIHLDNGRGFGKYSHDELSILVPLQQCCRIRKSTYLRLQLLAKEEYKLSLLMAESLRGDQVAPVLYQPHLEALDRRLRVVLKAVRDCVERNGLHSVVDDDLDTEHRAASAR
soluble form of FLAG-tagged FAM20C G379E (Q8IXL6-1, form named): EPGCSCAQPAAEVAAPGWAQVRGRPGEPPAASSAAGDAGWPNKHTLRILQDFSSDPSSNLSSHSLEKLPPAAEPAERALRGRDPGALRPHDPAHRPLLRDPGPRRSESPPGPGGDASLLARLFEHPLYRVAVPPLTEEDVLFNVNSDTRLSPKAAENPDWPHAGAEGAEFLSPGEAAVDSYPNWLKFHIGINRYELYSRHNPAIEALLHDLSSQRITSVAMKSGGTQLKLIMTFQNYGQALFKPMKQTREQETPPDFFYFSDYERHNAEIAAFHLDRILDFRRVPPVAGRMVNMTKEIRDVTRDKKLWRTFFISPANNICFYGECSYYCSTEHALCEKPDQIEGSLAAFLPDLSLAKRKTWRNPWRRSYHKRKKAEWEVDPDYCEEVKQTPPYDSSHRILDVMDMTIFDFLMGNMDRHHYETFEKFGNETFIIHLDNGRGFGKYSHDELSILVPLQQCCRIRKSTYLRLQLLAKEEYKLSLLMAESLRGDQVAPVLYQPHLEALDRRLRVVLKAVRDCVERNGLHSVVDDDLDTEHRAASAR
soluble form of FLAG-tagged FAM20C G379R (Q8IXL6-1, form named): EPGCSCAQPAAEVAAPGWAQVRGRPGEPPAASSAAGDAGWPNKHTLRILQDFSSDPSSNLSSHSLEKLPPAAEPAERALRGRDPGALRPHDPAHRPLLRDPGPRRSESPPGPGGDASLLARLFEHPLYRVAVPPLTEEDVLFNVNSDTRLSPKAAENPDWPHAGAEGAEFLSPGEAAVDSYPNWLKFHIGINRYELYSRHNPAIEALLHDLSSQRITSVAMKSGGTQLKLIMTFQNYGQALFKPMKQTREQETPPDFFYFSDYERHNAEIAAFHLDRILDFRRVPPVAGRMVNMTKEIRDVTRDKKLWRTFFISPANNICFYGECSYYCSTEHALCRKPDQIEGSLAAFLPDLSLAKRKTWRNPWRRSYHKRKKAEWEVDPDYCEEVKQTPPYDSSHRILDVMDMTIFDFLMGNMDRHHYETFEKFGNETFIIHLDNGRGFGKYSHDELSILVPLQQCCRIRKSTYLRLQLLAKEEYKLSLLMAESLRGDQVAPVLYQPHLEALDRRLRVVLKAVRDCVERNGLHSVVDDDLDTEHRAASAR
soluble form of FLAG-tagged FAM20C L388R (Q8IXL6-1, form named): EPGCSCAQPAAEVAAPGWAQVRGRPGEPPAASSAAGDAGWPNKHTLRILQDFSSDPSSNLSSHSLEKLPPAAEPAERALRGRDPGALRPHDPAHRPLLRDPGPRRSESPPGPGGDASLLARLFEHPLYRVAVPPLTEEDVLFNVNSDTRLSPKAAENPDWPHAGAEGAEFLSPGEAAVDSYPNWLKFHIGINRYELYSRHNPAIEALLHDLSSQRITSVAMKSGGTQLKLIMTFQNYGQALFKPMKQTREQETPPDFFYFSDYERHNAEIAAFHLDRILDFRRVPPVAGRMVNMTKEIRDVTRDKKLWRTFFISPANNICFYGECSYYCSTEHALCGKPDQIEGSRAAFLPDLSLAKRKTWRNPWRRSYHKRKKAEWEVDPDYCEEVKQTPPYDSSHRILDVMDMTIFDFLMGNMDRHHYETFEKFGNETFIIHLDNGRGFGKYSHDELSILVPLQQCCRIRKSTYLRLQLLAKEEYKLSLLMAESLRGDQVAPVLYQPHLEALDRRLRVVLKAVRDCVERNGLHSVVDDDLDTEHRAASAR
soluble form of FLAG-tagged FAM20C R549W (Q8IXL6-1, form named): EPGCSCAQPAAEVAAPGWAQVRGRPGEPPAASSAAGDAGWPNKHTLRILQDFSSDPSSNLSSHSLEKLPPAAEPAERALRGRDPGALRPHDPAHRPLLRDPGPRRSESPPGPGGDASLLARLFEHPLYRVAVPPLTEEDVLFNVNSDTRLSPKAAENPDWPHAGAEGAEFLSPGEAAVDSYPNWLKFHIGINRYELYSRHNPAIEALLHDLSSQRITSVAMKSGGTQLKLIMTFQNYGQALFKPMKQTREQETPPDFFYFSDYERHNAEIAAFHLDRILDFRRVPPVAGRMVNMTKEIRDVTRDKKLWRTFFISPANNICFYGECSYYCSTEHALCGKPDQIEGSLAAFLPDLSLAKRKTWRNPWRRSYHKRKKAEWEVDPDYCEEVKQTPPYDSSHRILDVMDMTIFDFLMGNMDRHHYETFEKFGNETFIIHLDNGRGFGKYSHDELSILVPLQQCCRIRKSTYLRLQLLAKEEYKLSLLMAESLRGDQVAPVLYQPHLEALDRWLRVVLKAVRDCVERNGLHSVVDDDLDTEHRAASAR

Molecular target: T1, soluble form of His-tagged chondroitin 4-O-sulfotransferase-1 (UniProt Q9NPF2)
T1 sequence: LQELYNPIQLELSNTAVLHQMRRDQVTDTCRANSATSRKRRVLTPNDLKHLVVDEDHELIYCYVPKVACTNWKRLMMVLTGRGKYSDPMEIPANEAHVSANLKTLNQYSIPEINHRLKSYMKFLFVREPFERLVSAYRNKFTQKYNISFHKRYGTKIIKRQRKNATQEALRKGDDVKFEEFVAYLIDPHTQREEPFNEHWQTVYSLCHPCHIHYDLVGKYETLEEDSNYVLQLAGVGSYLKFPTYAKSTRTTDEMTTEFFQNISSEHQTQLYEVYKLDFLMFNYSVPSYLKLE
Test: pull-down; culture medium of COS-1 cells co-expressing soluble His-tagged C4ST-1 and FLAG-tagged FAM20 proteins; Ni-NTA agarose or anti-FLAG tag antibody beads, 4 °C, 1 h; washed with TBS with 0.05% Tween 20; eluted with imidazole or FLAG peptide; immunoblot

binding	Substance
binds	soluble form of FLAG-tagged FAM20C (wild type) (from UniProt Q8IXL6-1 43-584) (enzyme)
no binding	soluble form of FLAG-tagged FAM20C G379R (from UniProt Q8IXL6-1 43-584) (enzyme)

The remaining lines, values behind:

Substance	binding
soluble form of FLAG-tagged FAM20C G379E (from UniProt Q8IXL6-1 43-584) (enzyme)	no binding
soluble form of FLAG-tagged FAM20C L388R (from UniProt Q8IXL6-1 43-584) (enzyme)	no binding
soluble form of FLAG-tagged FAM20C R549W (from UniProt Q8IXL6-1 43-584) (enzyme)	no binding
